{"source": "PubChem BioAssay AID1347417", "about": "(National Center for Advancing Translational Sciences (NCATS), 2020)", "note": "The whole screen tested about 120,000 compounds, of which about 5,300 (4.4%) were called active. Inconclusive results, whose numbers are uncertain, are shown with a selection of clear calls. Calls follow the shape of the dose curve; as a rule, active = well fitted inhibition curve with a large enough effect; inconclusive = small, poorly fitted or top-dose-only effect; inactive = no such curve, though single readings can be large or run the other way. Potencies of inconclusive entries are doubtful fits and often do not repeat. Potency is read from the fitted curve at half-maximal effect; tags tell the direction and shape of the fitted curve."}
{"test": "qHTS Primary assay for Inhibitors of Plasmodium falciparum Dd2 growth in vitro; also: nearly all actives have a fitted effect of over 65% in size", "conditions": "P. falciparum Dd2 growth, SYBR Green, 72 h; series mostly up to 28.9 µM", "summary_of_the_method": "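Readout: SYBR Green fluorescence, 485 nm excitation, 535 nm emission, after ~16 h lysis at 37C. Before that, Dd2-infected red cells (2.5% hematocrit) grew 72 h with compound, 29 uM top final concentration.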"}
{"smiles": "Oc1ccc(-c2ccc(-c3nc(CCc4ccccc4)no3)cn2)cc1", "Potency": "inconclusive: 0.251 µM [inhibitor, full curve, poor fit]"}
{"smiles": "COc1ccc(CNc2oc(-c3ccc(COc4ccccc4C)o3)nc2C#N)cc1", "Potency": "inconclusive: 10 µM [inhibitor, single point]"}
{"smiles": "c1ccc(-c2noc(-c3ccccc3OC3CNC3)n2)cc1", "Potency": "inconclusive: 7.08 µM [inhibitor, partial curve, poor fit]"}
{"smiles": "CCCN(Cc1nc(-c2ccc(C(F)(F)F)cc2)oc1C)CC1CCCO1", "note": "(stereo not given)", "Potency": "inconclusive: 20 µM [inhibitor, single point]"}
{"smiles": "COc1ccc(CN2C[C@@H]3C(=O)N(CCN4CCc5ccccc5C4)C(=O)[C@@H]3C2)c(OC)c1", "Potency": "inconclusive: 20 µM [inhibitor, single point]"}
{"smiles": "Cc1ccccc1C(=O)N1CCC(CCC(=O)NCCC(C)C)CC1", "Potency": "inactive"}
{"smiles": "O=C1CCN(C(=O)COc2ccccc2)CCCC(C(=O)NCc2ccccc2)CCN1", "note": "(stereo not given)", "Potency": "inconclusive: 3.98 µM [inhibitor, single point]"}
{"smiles": "CCCN(C(=O)Cn1cnc2onc(-c3ccc(F)cc3)c2c1=O)c1cccc(Cl)c1", "Potency": "inconclusive: 7.08 µM [inhibitor, single point]"}
{"smiles": "CC1=C[C@@H](CN2CCC(C(N)=O)CC2)[C@H](C(C)C)C[C@H]1Cc1nnc(-c2ccc(N(C)C)cc2)o1", "Potency": "active: 3.55 µM"}
{"smiles": "O=C(N[C@@H]1CCC[C@@H]1C(=O)N1CCCCC1)c1ccncc1", "Potency": "inactive"}
{"smiles": "O=C(c1cc2ccccc2[nH]1)N1C[C@@H](CO)[C@H](c2nc(C3CC3)no2)C1", "Potency": "inconclusive: 12.6 µM [inhibitor, partial curve]"}
{"smiles": "CCOC(=O)c1c(NC(=O)c2ccc(S(=O)(=O)N(CC(C)C)CC(C)C)cc2)sc2c1CCN(C(=O)OCC)C2", "Potency": "inconclusive: 17.8 µM [inhibitor, single point]"}
{"smiles": "COc1ccc(Cl)cc1NC(=O)c1sc2nc3n(c(=O)c2c1C)CCC3", "Potency": "inactive"}
{"smiles": "O=C(Nc1ccc(F)cc1F)N1CCOc2ccc(CN3CCc4ccccc4C3)cc2C1", "Potency": "inconclusive: 0.316 µM [inhibitor, full curve, poor fit]"}
{"smiles": "COc1ccc(-c2noc([C@@H]3C[C@H](NS(=O)(=O)c4ccc(C)cc4)CN3C)n2)cc1", "Potency": "inconclusive: 11.2 µM [inhibitor, single point]"}
{"smiles": "COc1ccc(-c2cnc3[nH]cc(CC(=O)NCc4cccnc4)c3c2)cc1OC", "Potency": "inconclusive: 0.398 µM [inhibitor, full curve, poor fit]"}
{"smiles": "CCCCn1cc2c(c1-c1ccc(Cl)cc1)c(=O)n(C)c(=O)n2C", "Potency": "inconclusive: 20 µM [inhibitor, single point]"}
{"smiles": "Cc1ccc(CNC(=O)NC2CCN(C(=O)N3CC4CC(C3)[C@H]3CCCC(=O)N3C4)CC2)cc1", "note": "(stereo not given in full)", "Potency": "inactive"}
{"smiles": "CCCCN(CCCNC(=O)c1cc(Nc2ccc(OC)c(OC)c2)nc2ccccc12)Cc1ccccc1", "Potency": "active: 2.24 µM"}
{"smiles": "COc1ccc(NC(=O)N2CCC(Oc3ncccc3C(=O)N(C)C)C2)c(C)c1", "note": "(stereo not given)", "Potency": "inactive"}
{"smiles": "Cc1ccc(-n2ncc(C(=O)NCc3ccco3)c2C2CCN(C(=O)OC(C)(C)C)CC2)c(C)c1", "Potency": "inconclusive: 8.91 µM [inhibitor, partial curve]"}
{"smiles": "CC(C)c1ccc(CN2C[C@@H]3[C@H](C2)N(CCOc2ccccc2)C(=O)C(C)(C)[S+]3(=O)[O-])cc1", "Potency": "inconclusive: 10 µM [inhibitor, single point]"}
{"smiles": "CCc1ccc(CN(Cc2cn[nH]c2-c2ccc(OC)cc2)C(=O)Nc2cc(Cl)ccc2OC)cc1", "Potency": "active: 12.6 µM"}
{"smiles": "CCC(=O)N1CCC(Cn2c(C)cnc2C2CC2)CC1", "Potency": "inconclusive: 2.51 µM [inhibitor, single point]"}
{"smiles": "CC(C)C[C@@H]1N[C@H](C(=O)NCc2cccnc2)Cc2c[nH]c3cccc1c23", "Potency": "inconclusive: 3.16 µM [inhibitor, single point]"}
{"smiles": "N#Cc1cccc(CN2CCC(C3=NC(O)c4cc(F)ccc4N3)CC2)c1", "note": "(stereo not given)", "Potency": "inactive"}
{"smiles": "Oc1ccc(-c2nc(C3CC3)nc3c2CCN(Cc2ccccc2C(F)(F)F)CC3)cc1", "Potency": "inconclusive: 2.24 µM [inhibitor, partial curve, poor fit]"}
{"smiles": "CCCCOC(=O)c1ccc(NC(=O)c2c(OC)cc(=O)n3c2CCCC3)cc1", "Potency": "inconclusive: 20 µM [inhibitor, single point]"}
{"smiles": "CCCn1cc(-c2ccncc2)cc1C(=O)N1CCN(c2ccccc2F)CC1", "Potency": "inconclusive: 3.16 µM [inhibitor, full curve, poor fit]"}
{"smiles": "COc1cc(CNC(=O)CC2CCOCC2)cc(OC)c1", "Potency": "inactive"}
{"smiles": "Cc1noc(C)c1CNCC1(CO)C[C@@H](O)[C@@H](O)C1", "note": "(stereo not given in full)", "Potency": "inactive"}
{"smiles": "Cc1ncoc1C(=O)N1CCC2(CC1)CC(N(Cc1ccc(F)cc1)C1CC1)CCO2", "note": "(stereo not given)", "Potency": "inconclusive: 7.94 µM [inhibitor, partial curve, poor fit]"}
{"smiles": "CC(C)CNC(=O)c1ccc(-c2nnc3ccc(NC(=O)C4CC4)cn23)cc1", "Potency": "inconclusive: 3.16 µM [inhibitor, single point]"}
{"smiles": "CCS(=O)(=O)N1CCCN(C(=O)C2CC2)C(c2ccccc2)CC(=O)NCC1", "note": "(stereo not given)", "Potency": "inactive"}
{"smiles": "Cc1cnc(C(=O)N2CC(c3nc(CCOCC4CC4)no3)C2)cn1", "Potency": "inactive"}
{"smiles": "COCCn1ncc(N2CCC(NC(=O)C3CCC3)CC2)cc1=O", "Potency": "inactive"}
{"smiles": "COc1ccc(-c2nn(-c3ccc(F)cc3)c(OC(C)=O)c2-c2ccc(NC(C)=O)cc2)cc1OC", "Potency": "inconclusive: 0.708 µM [inhibitor, full curve, poor fit]"}
{"smiles": "Cc1cccc(-c2nnc(C3CCN(S(=O)(=O)c4cccc(Cl)c4)CC3)o2)c1", "Potency": "inconclusive: 11.2 µM [inhibitor, single point]"}
{"smiles": "CCOc1cc2[nH]c(=O)n(Cc3ccc(C(=O)N4CCN(c5cccc(Cl)c5)CC4)cc3)c(=O)c2cc1OCC", "Potency": "inconclusive: 0.447 µM [inhibitor, full curve, poor fit]"}
{"smiles": "COc1cc(C2NC(=O)c3c(sc4c3CCN(C)C4)N2)cc(OC)c1OC", "note": "(stereo not given)", "Potency": "inconclusive: 0.126 µM [inhibitor, full curve, poor fit]"}
